The list shows a part of the results. At the low end of the ranking, values are background and their order means little.

The assay has as its target SIX1 homeodomain (reference allele) (UniProt Q15475). The assay can be described thus: universal protein binding microarray. Conditions: Universal all-10-mer PBM (8x60K, AMADID 030236), 300 nM GST-tagged protein, Alexa Fluor 488 anti-GST; buffer, salt, pH and temperature not stated; high values mean tight binding; most listed sequences are background and not binding sites; double strand, one strand shown.
ACGACCCG: the binding signal amounted to 0.0857 E-score.

For AGCTTCGA, the binding signal is -0.101 E-score.

With CATTTGTA, the binding signal is -0.0461 E-score.

AAAGGCCA: the binding signal is -0.12 E-score.

GTTAGAGA: the binding signal is -0.201 E-score.

In the case of CGGGCGCA, the binding signal is -0.0953 E-score.

In the case of AAGAAACG, the binding signal is -0.0137 E-score.

Take ACAACATG: the binding signal is -0.0441 E-score.

Take ACATGGGC: the binding signal was -0.271 E-score.

As for ATGTGCCA, the binding signal is -0.115 E-score.

Take ACTCAAGC: the binding signal is -0.174 E-score.

For the sequence AATAGTGA, the binding signal is -0.118 E-score.

As for CGAAACCA, the binding signal was found to be 0.165 E-score.

Regarding CCTTACGC, the binding signal is -0.164 E-score.

AAAGCCGT: the binding signal is -0.0418 E-score.

Take GGCGTGTA: the binding signal is 0.141 E-score.

On to CGCTGAAG, for which the binding signal was -0.113 E-score.

In the case of AACCCTGT, the binding signal was -0.0754 E-score.

As to ATCGGAAC, the binding signal was 0.132 E-score.

Take ACACGGCA: the binding signal turned out to be 0.0118 E-score.

Take ATGTTCCC: the binding signal was -0.0773 E-score.

For the sequence AGCAAGTC, the binding signal was -0.256 E-score.

As to GGGGGAGA, the binding signal is 0.121 E-score.

In the case of GAGGAGAC, the binding signal is -0.0944 E-score.

Consider AGTGTTAT, for which the binding signal turned out to be 0.0606 E-score.

Regarding TCCACAAA, the binding signal turned out to be 0.0353 E-score.

With GCCTTCGA, the binding signal is -0.133 E-score.

For ACGTAACC, the binding signal was -0.216 E-score.

For CCGGAAAA, the binding signal is -0.151 E-score.

GGGCTAAC: the binding signal is -0.164 E-score.

On to AAGCGTTC, for which the binding signal was -0.266 E-score.

For the sequence CGAGATCC, the binding signal worked out at 0.325 E-score.

Consider ACAGAATA, for which the binding signal was found to be 0.0822 E-score.

In the case of AATGATGG, the binding signal came to 0.0261 E-score.

Turning to ATATCCAA, the binding signal amounted to 0.358 E-score.

In the case of CGACTTGA, the binding signal is -0.0299 E-score.

Take GAGTGAAC: the binding signal is -0.125 E-score.

With GGCGCGCC, the binding signal is -0.25 E-score.

In the case of AAAGTGAC, the binding signal is -0.193 E-score.

Take ATCCGGGA: the binding signal amounted to 0.295 E-score.

Regarding GACTTAAC, the binding signal is -0.384 E-score.

Consider AGAGTGCG, for which the binding signal was -0.152 E-score.

Turning to ACTCACCC, the binding signal was -0.0761 E-score.

As for CGGAAACA, the binding signal is -0.0392 E-score.

On to CTAAGATA, for which the binding signal was found to be 0.241 E-score.

As for GTCACCAA, the binding signal is -0.115 E-score.

Turning to AATACCAC, the binding signal stood at 0.33 E-score.

Take CGTAAAAC: the binding signal is -0.0435 E-score.

As to ACGGTCTA, the binding signal was -0.108 E-score.

As for GCACGGGA, the binding signal was -0.0887 E-score.

Consider ATCTACAC, for which the binding signal was determined as 0.221 E-score.

Take AGGGGTCG: the binding signal was 0.0957 E-score.

As to AGTAACGC, the binding signal is -0.357 E-score.

Take ATGCTAGG: the binding signal is 0.054 E-score.

Take CAAGCTGA: the binding signal is -0.0652 E-score.

Consider GAAGGTTA, for which the binding signal was -0.056 E-score.

Take GAGTATCA: the binding signal amounted to 0.47 E-score.

With CGCTAGGA, the binding signal is 0.0482 E-score.

Take CGCTGCCC: the binding signal was -0.0948 E-score.

In the case of CTACTACA, the binding signal was -0.0526 E-score.

As for TTACGGAA, the binding signal was -0.0871 E-score.

On to AAGGACAC, for which the binding signal was 0.11 E-score.

GGATTACA: the binding signal amounted to 0.18 E-score.

For CGATGGAC, the binding signal is -0.0215 E-score.

Regarding GAGATAAA, the binding signal was found to be 0.0356 E-score.

As to CTCGAGCC, the binding signal was 0.0489 E-score.

Consider ACCCGGAT, for which the binding signal was determined as 0.411 E-score.

For the sequence TACACATA, the binding signal is 0.289 E-score.

As for GCATATCC, the binding signal was 0.391 E-score.

Turning to GGATCAGA, the binding signal is 0.414 E-score.

With AATTGGGT, the binding signal was 0.0144 E-score.

In the case of ATGCGCGC, the binding signal is -0.00946 E-score.

For the sequence ATCGCCCA, the binding signal stood at 0.197 E-score.

As to TACCTAGA, the binding signal stood at 0.232 E-score.

Regarding AGGGATGA, the binding signal was determined as 0.176 E-score.

Regarding AATCTATC, the binding signal was determined as 0.0686 E-score.

As to ACTACTTC, the binding signal was -0.0404 E-score.

As to GCCCAACA, the binding signal was -0.174 E-score.

Regarding TACCAGAA, the binding signal came out at 0.0693 E-score.

With ACGAGCCA, the binding signal was 0.025 E-score.

As for AACGTCAT, the binding signal is -0.0961 E-score.

Take AAGAGAAC: the binding signal is -0.0129 E-score.

Consider CAGACTGC, for which the binding signal is -0.281 E-score.

Turning to CAAATTGC, the binding signal is -0.23 E-score.

Take AGGATTGC: the binding signal came out at 0.066 E-score.

Turning to GGGAGATA, the binding signal was determined as 0.334 E-score.

For AAGATCCG, the binding signal was 0.312 E-score.

In the case of AGATCATG, the binding signal came to 0.295 E-score.

In the case of ATATCTTA, the binding signal is 0.345 E-score.

On to GGTTCGAA, for which the binding signal is -0.072 E-score.

Turning to ACCTACAT, the binding signal was -0.0597 E-score.

With ATGGGCGA, the binding signal is 0.0869 E-score.

Take CGATGCCA: the binding signal is -0.0713 E-score.

In the case of CAGCCCCC, the binding signal was -0.204 E-score.

As to GCGGCGGA, the binding signal was determined as 0.0131 E-score.

For AGTTACTG, the binding signal is -0.111 E-score.

Turning to ATGCACGG, the binding signal is -0.163 E-score.

For TTGAGAAA, the binding signal is -0.0364 E-score.

Regarding CACGCGGA, the binding signal is -0.0544 E-score.

Regarding CGCCTTCA, the binding signal is -0.199 E-score.

Regarding CACTCGTA, the binding signal was -0.0847 E-score.

In the case of CATCTGCG, the binding signal amounted to 0.00218 E-score.

With AAGACTCT, the binding signal was -0.206 E-score.

Take TATGGCCA: the binding signal was 0.0383 E-score.

For the sequence CCAGCGGA, the binding signal is 0.0384 E-score.

In the case of AGACAGTC, the binding signal is -0.165 E-score.

CACAACGA: the binding signal is -0.0911 E-score.

Take ACCCAAGC: the binding signal turned out to be 0.0606 E-score.

Regarding CACCCAAC, the binding signal was -0.152 E-score.

For the sequence CCCAATCC, the binding signal was determined as 0.0899 E-score.

In the case of CAGCTGGC, the binding signal was -0.283 E-score.

With ATTAAACC, the binding signal is 0.174 E-score.

On to CTACAGTC, for which the binding signal was -0.262 E-score.

With ACTAGCCA, the binding signal is -0.0336 E-score.

As for CCATGGAG, the binding signal came out at 0.0552 E-score.

Regarding ATTAGGCG, the binding signal is -0.0513 E-score.

Take ATTTAGCA: the binding signal was -0.202 E-score.

As to AGTTAACT, the binding signal was -0.281 E-score.

Regarding ACGGACCT, the binding signal turned out to be 0.00716 E-score.

Turning to CCAGTGAA, the binding signal is -0.154 E-score.

Consider CCTTTGTA, for which the binding signal is -0.079 E-score.

Take ACGTGAAT: the binding signal is -0.132 E-score.

Consider GCGCTCAC, for which the binding signal was -0.0938 E-score.

Turning to GCTTCGAA, the binding signal was -0.134 E-score.

For the sequence TCATTTCA, the binding signal was -0.0112 E-score.

As for AGCACAAC, the binding signal was -0.0359 E-score.

Consider CAATCTAG, for which the binding signal stood at 0.14 E-score.

Consider ATAACGCG, for which the binding signal amounted to 0.00783 E-score.

As for AGCATGCA, the binding signal is -0.0457 E-score.

With CAATTCAG, the binding signal is -0.0584 E-score.

On to ATGGTCCC, for which the binding signal was -0.209 E-score.

For CAATCCCA, the binding signal worked out at 0.177 E-score.

For the sequence CTGATGAA, the binding signal was -0.241 E-score.

Take AGGCTTAA: the binding signal was -0.125 E-score.

Regarding GGTCGAAA, the binding signal is -0.16 E-score.

As for CCGATAGG, the binding signal came out at 0.348 E-score.

CCCAGGGA: the binding signal is -0.0532 E-score.

Consider CAGTATGA, for which the binding signal came to 0.151 E-score.

Take AAGCACTA: the binding signal came out at 0.0431 E-score.

On to CAAGCCTC, for which the binding signal is -0.335 E-score.

Take CCATCTAG: the binding signal stood at 0.11 E-score.

Consider ACTTGTGC, for which the binding signal was -0.215 E-score.

For the sequence AGCGTCAG, the binding signal was -0.138 E-score.

CTTGACGA: the binding signal is -0.152 E-score.

In the case of ACAAAAAG, the binding signal was -0.0645 E-score.

Turning to AAAATTTT, the binding signal was -0.259 E-score.

Consider GGACATAA, for which the binding signal is -0.1 E-score.

Regarding TCCAGCGA, the binding signal is -0.0877 E-score.

Take GGCCCGGA: the binding signal is -0.0237 E-score.

With AAGTTCAT, the binding signal is -0.239 E-score.

On to CACGCGTG, for which the binding signal was -0.00775 E-score.

On to GCTAGGCC, for which the binding signal was -0.0661 E-score.

On to CCATCCCC, for which the binding signal came to 0.203 E-score.

Turning to GCAGTCGA, the binding signal was -0.143 E-score.

Take ACTAAAAT: the binding signal was -0.251 E-score.

For the sequence AGTCAGTC, the binding signal was -0.156 E-score.

Regarding ATAAAACA, the binding signal was -0.0822 E-score.

On to GAATTAGA, for which the binding signal was -0.175 E-score.

With GGCTAACC, the binding signal was -0.176 E-score.

For the sequence ACGCGTAG, the binding signal was -0.0632 E-score.

Take AGGACCAA: the binding signal is -0.259 E-score.

On to TACGATCA, for which the binding signal was 0.199 E-score.

On to ACTGCGAC, for which the binding signal was -0.28 E-score.

ACTTCGGA: the binding signal is -0.0775 E-score.

Consider AGATTGGC, for which the binding signal was -0.116 E-score.

As to AGTCTAAG, the binding signal was -0.0949 E-score.

Turning to ATTGTGAA, the binding signal is -0.0689 E-score.

Regarding CCCTGGGA, the binding signal was determined as 0.00666 E-score.

In the case of GCGTTTCA, the binding signal was -0.234 E-score.

For GAATCCAC, the binding signal was -0.04 E-score.

Regarding ATGCGAGA, the binding signal is -0.0296 E-score.

For the sequence AACTTACT, the binding signal is -0.241 E-score.

Values taken from article PMC10668032.
